Results from PubChem BioAssay AID485297 (National Center for Advancing Translational Sciences (NCATS), 2010).
The campaign covered roughly 320,000 compounds. About 9,100 (2.8%) were called active. The shares of active, inactive and inconclusive entries below differ from those in the screen. Calls follow the shape of the dose curve; as a rule, active = well fitted activation curve with a large enough effect; inconclusive = small, poorly fitted or top-dose-only effect; inactive = no such curve, though single readings can be large or run the other way. Potencies of inconclusive entries are left out as doubtful fits.

Assay: qHTS Assay for Rab9 Promoter Activators; also: nearly all actives have a fitted effect of over 60% in size
Settings: Huh7 Rab9 promoter-luciferase reporter, luminescence, 24 h; series mostly up to 9.22 µM
Summary of the method: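 Huh7 cells stably carrying a Rab9 promoter-luciferase reporter, 1500 cells per well in OP-MEM I with 10% FBS, treated with compound 24 hours at 37C. Luciferase activity read by luminescence after 10 minutes with Amplite reagent.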
Potency is read from the fitted curve at half-maximal effect; tags tell the direction and shape of the fitted curve.

Row | Structure (SMILES) | Potency
1 | CC(C)C[C@@H](CSc1ccccc1)N1CCN(C)CCC1=O | inactive
2 | CCn1nc(C)c(/C=N/NC(=O)Cc2ccc(Cl)cc2)c1C | inconclusive [activator, single point]
3 | O=S(=O)(c1cc(Cl)c(Cl)cc1Cl)N1CCN2CCCC2C1 (configuration not stated) | inactive
4 | O=C(Nc1nnc(-c2ccccc2Cl)o1)c1cccnc1 | inconclusive [activator, single point]
5 | O=C(NCCC1=CCCCC1)c1cnsn1 | inconclusive [activator, partial curve]
6 | NC(=O)c1c(NC(=O)c2ccc(F)cc2Cl)sc2c1CCC2 | inconclusive [activator, single point]
7 | Cc1nc(C)c(-c2csc(NCc3ccco3)n2)s1 | inconclusive [activator, partial curve]
8 | Cc1c2ccccc2nc2c(F)c(NC(C)C)c(F)c(F)c12 | inconclusive [activator, partial curve]
9 | Cc1cc(N2CCC(C)CC2)n2ncc(-c3ccccc3)c2n1 | active: 0.316 µM
10 | Fc1ccc(-n2ncc3c(SCc4cccnc4)ncnc32)cc1 | inconclusive [activator, partial curve]
11 | O=C(NCC1CCCC(CNC(=O)Nc2ccc(Cl)cn2)C1)Nc1ccc(Cl)cn1 (configuration not stated) | inactive
12 | COc1cccc(-c2csc(NC(C)=O)n2)c1 | active: 3.98 µM
13 | COc1cccc(NC(=O)COc2coc(CN3CCc4ccccc4C3)cc2=O)c1 | inactive
14 | N#CC1=C(N)Oc2n[nH]c(-c3ccccc3)c2C12C(=O)Nc1ccccc12 (configuration not stated) | inactive
15 | CC12CCC(c3nnc(SCc4ccc(Cl)cc4)nc31)C2(C)C (configuration not stated) | inactive
16 | COc1ccc(CCn2nnnc2C2(c3ccc(C)cc3)CC2)cc1 | inactive
17 | COc1cccc(-c2noc(C3CCCN(C(=O)c4cccc(F)c4)C3)n2)c1 (configuration not stated) | inactive
18 | O=C(Nc1ccccc1C(=O)N/N=C/c1ccc(O)cc1)c1ccccc1 | inconclusive [activator, partial curve]
19 | Cc1ccc(OCc2cc(C(=O)N3CC4C[C@@H]5CC3C[C@H](C4)C5)no2)cc1C | active: 1.41 µM
20 | O=C(N/N=C/c1coc2ccccc2c1=O)c1cc(Br)c(O)c(Br)c1 | inactive
21 | COc1ccccc1/C=N\N=C(\N)c1ccccn1 | active: 2.24 µM
22 | COc1cccc(/C=N/NC(=O)c2cnn(-c3ccccc3)c2N)c1 | inconclusive [activator, partial curve]
23 | Cc1ccc(SCC(=O)N2CCOCC2)cc1 | inconclusive [activator, partial curve]
24 | CCN(NC(=O)C(O)(c1ccc(F)cc1)c1ccc(F)cc1)C(=O)c1ccccc1 | inactive
25 | CCOC(=O)c1c(NC(=O)COC(=O)c2ccccc2NC)sc(C(=O)N(C)C)c1C | inactive
26 | Cc1ccc(NC(=O)OCc2cncs2)cc1 | inconclusive [activator, partial curve]

Row | Structure (SMILES) | Potency
27 | Cc1cc(=O)oc2cc(OC(=O)C3CCN(C(=O)c4ccc(F)cc4)CC3)ccc12 | inactive
28 | CN(C)/C=N/c1c(C#N)cnn1-c1nc2ccccc2s1 | active: 0.126 µM
29 | Cc1nn2cc(-c3cccc(Cl)c3)cnc2c1Br | inactive
30 | COc1ccc(-c2noc(-c3ccc4c(c3)OCO4)n2)cc1 | active: 1.12 µM
31 | COc1ccc(CCNC(=O)C2CC(c3cccc([N+](=O)[O-])c3)=NO2)cc1 (configuration not stated) | inconclusive [activator, single point]
32 | COc1ccc(C(=O)N/N=C/c2ccc(N3CCOCC3)s2)cc1OC | inactive
33 | COc1ccc(Nc2ccc(Nc3ccc(OC)cc3)nn2)cc1 | inconclusive [activator, single point]
34 | O=C(Nc1ccc(Cl)cc1)c1ccc2c(c1)OCO2 | inconclusive [activator, partial curve, poor fit]
35 | CCOC(=O)CSc1nc(N)c(C#N)cc1C#N | inactive
36 | Cc1c(N=Cc2c(O)n(C)c(=O)c3ccccc23)c(=O)n(-c2ccccc2)n1C | inactive
37 | CC1=NN(c2ccccc2)C(=O)C1N=Nc1ccccc1 (configuration not stated) | inconclusive [activator, single point]
38 | O=C(CN1CCN(S(=O)(=O)c2ccc(F)c(F)c2)CC1)Nc1ccccc1C(=O)NC1CC1 | inactive
39 | CC(=O)N1CCN(C(=S)Nc2ccc(SC(F)F)cc2)CC1 | inactive
40 | O=C(Nc1nccs1)c1cc2c(s1)CCCCC2 | active: 0.794 µM
41 | COC(=O)c1ccc(NC(=O)c2ccccc2SC)cc1 | inconclusive [activator, full curve, poor fit]
42 | CN(Cc1ccon1)Cc1cn(C)nc1-c1cccc(Cl)c1 | inconclusive [activator, partial curve]
43 | Cc1cc(-c2ccccc2)nc(N/N=C/c2ccccc2F)n1 | inconclusive [activator, single point]
44 | Cn1c(C(=O)NCCC2=CCCCC2)cc2c(=O)n3ccccc3nc21 | inconclusive [activator, partial curve]
45 | CCCOc1ccc(-c2nnc(N)s2)cc1 | inconclusive [activator, partial curve]
46 | CC1CCN(Cc2nnc(-c3cccc(Br)c3)o2)CC1 | inconclusive [activator, partial curve]
47 | Brc1c(-c2ccc3c(c2)OCO3)nc2ncccn12 | inconclusive [activator, partial curve]
48 | N#Cc1cc2c(nc1SCC(=O)Nc1sc3c(c1C#N)CCC3)CCCC2 | inconclusive [activator, partial curve]
49 | CCCc1cc(C(=O)O)c2ccccc2n1 | inactive
50 | COc1cc(/C=N/NC(=O)CSc2ccccn2)ccc1OC(C)C | inconclusive [activator, single point]
51 | CCOC(=O)C1(Cc2cccc(Cl)c2)CCCN(C(=O)CCC(=O)N(C)C)C1 (configuration not stated) | inactive
52 | COc1ccc2nc(NC(=O)CSc3nc4ccccc4o3)sc2c1 | inconclusive [activator, partial curve, poor fit]
